Results on 3 substances are retold here after publication PMC7732508.

The chains behind the UniProt entries cited, without tags or fusion partners. Where a name states a change or a piece, a line headed by the entry shows the natural chain unless it says otherwise. A line that says so, or that is headed by a name, gives the form on record, which may keep a tag or linker. Residues count along the entry.
UniProt Q9BYM8: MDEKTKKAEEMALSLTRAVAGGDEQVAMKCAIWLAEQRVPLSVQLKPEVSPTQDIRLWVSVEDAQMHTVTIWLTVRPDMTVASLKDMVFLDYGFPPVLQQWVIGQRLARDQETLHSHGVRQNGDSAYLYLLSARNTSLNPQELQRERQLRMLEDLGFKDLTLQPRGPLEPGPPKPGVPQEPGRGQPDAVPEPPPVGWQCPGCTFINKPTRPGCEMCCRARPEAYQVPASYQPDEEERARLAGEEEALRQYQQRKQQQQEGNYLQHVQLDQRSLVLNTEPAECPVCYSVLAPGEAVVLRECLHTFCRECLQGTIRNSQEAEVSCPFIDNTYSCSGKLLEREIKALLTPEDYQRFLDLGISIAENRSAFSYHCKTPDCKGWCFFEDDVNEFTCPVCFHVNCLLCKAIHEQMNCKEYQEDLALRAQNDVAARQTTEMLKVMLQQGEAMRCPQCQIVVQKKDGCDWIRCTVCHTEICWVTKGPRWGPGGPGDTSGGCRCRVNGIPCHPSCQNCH
UniProt Q96EP0: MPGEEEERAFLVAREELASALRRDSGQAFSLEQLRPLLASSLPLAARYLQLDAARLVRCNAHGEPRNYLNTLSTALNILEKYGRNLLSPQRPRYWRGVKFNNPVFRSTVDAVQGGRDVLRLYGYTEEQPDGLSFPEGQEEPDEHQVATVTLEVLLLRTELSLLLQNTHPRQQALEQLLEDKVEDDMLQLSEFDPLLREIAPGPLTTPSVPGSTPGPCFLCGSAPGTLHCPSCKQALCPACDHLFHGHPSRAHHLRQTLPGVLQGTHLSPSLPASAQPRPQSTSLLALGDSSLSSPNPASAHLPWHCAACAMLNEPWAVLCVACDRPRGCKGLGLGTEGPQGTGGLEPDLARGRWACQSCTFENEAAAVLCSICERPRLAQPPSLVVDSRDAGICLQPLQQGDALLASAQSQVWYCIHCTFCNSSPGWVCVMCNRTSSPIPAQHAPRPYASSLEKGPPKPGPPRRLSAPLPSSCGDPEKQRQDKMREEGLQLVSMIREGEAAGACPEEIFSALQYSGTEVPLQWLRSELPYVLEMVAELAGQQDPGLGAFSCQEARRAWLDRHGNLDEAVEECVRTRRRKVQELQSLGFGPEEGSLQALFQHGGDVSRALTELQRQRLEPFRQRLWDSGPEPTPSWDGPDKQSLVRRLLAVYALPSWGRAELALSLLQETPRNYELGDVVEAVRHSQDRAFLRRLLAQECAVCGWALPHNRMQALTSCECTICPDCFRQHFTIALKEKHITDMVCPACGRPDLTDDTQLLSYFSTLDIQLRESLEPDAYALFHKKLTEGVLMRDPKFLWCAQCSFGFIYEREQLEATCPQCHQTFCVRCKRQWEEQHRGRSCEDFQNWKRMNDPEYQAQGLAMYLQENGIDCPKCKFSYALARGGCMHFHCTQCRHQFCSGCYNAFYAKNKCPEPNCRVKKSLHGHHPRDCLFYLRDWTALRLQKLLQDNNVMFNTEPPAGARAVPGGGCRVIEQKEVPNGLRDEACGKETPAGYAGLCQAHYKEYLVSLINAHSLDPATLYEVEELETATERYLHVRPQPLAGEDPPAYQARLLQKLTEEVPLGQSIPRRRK
Myc-tagged HOIP, PUB domain-deleted mutant: residues 165-1072 of Q96EP0
UniProt Q9UDY8: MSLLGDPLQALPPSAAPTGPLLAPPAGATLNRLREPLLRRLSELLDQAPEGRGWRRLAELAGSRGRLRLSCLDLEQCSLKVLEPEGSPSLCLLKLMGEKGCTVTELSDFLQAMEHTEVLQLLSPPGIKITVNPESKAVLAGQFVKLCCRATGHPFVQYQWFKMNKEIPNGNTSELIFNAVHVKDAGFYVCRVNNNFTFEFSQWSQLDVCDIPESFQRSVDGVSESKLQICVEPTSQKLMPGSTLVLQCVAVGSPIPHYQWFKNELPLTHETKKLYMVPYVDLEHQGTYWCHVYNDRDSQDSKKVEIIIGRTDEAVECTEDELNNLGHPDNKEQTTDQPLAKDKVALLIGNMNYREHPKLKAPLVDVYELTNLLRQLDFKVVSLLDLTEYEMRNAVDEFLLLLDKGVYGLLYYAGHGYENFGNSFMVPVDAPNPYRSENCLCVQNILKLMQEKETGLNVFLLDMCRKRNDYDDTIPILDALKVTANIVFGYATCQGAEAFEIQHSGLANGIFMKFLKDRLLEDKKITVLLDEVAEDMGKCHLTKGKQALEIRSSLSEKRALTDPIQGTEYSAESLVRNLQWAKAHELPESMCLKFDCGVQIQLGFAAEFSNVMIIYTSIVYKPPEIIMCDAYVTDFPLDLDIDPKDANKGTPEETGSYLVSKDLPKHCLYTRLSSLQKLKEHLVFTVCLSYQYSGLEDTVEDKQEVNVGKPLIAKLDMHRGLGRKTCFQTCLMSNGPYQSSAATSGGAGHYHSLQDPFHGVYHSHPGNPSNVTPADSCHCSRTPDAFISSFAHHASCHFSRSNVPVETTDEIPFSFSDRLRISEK
UniProt Q96BN8: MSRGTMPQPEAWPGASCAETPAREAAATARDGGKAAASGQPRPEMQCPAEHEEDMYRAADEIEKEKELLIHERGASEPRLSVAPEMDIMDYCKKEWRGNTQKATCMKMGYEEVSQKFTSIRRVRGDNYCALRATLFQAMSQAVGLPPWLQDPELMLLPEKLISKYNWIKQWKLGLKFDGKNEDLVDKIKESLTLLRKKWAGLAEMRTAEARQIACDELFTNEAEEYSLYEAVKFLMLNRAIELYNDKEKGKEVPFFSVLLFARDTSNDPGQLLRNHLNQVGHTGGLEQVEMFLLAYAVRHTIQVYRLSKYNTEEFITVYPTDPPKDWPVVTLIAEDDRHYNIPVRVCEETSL

No constants are given. Whether binding was seen depends on the method and setting. Binding seen in cells or lysates may run through a third protein. Some results given as binding are weak or reduced against the parent protein; the word gives no strength. For some of these results: Where a sequence is shown, tags or fusion partners need not be part of it.

For experiment [1], the target named is Myc-tagged HOIL-1L (human) (UniProt Q9BYM8). Nature of the experiment: co-IP; Myc-tagged LUBAC subunits or HOIP mutants co-expressed with FLAG-tagged CBM components and/or FLAG-OTULIN in HEK293T cells; NP-40 buffer (20 mM Tris-HCl pH 7.4, 0.2% NP-40, 150 mM NaCl); anti-Myc immunoprecipitates on protein G agarose, immunoblotted.
Experiment [2] deals with Myc-tagged HOIP Y82A/N85E/N102A (human) (UniProt Q96EP0). The description is as above.
Experiment [3] deals with Myc-tagged HOIP, PUB domain-deleted mutant (human) (UniProt Q96EP0). The experiment is described as above.
In experiment [4] the target is Myc-tagged HOIP, wild type (human) (UniProt Q96EP0). Described as above.
Experiment [5] has as its target T1, Myc-tagged SHARPIN (human) (UniProt Q9H0F6).
T1 sequence: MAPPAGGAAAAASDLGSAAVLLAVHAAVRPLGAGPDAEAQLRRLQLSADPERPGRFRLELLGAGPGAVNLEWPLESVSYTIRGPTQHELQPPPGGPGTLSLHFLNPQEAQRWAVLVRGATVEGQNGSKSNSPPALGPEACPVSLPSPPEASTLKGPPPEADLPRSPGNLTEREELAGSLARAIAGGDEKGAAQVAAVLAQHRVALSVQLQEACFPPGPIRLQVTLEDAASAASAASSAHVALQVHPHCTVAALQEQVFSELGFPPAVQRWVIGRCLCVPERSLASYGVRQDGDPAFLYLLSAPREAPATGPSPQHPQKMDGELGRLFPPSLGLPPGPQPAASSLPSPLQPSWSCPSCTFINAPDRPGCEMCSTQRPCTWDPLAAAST
The description is as above.

For experiment [6], the target named is endogenous MALT1 (CBM complex subunit) of Jurkat cells (human (endogenous in Jurkat)) (UniProt Q9UDY8). The experiment is described as follows: co-IP; endogenous proteins; Jurkat cell lysates immunoprecipitated with anti-MALT1 antibody or normal mouse IgG, immunoblotted. On the technique in general: In western blotting, separated proteins are transferred to a membrane and probed.

With “FLAG-tagged MALT1, wild type (from UniProt Q9UDY8 1-824)”, the binding result in experiment [1] is recorded as “no binding”; in experiment [2], “binds”; in experiment [3], “no binding”; in experiment [4], “binds”; in experiment [5] it was “no binding”.

With “endogenous HOIP (LUBAC subunit) of Jurkat cells (from UniProt Q96EP0 1-1072)”, the binding entry in experiment [6] is reported as “binds”.

As for “endogenous OTULIN of Jurkat cells (from UniProt Q96BN8 1-352) (enzyme)”, the binding result in experiment [6] was “binds”.
